Measurements from PubChem BioAssay AID1460 (National Center for Advancing Translational Sciences (NCATS), 2008).
Where “and” joins values, the source holds several entries; their conditions need not be identical. Equal values may be shown once. Hit rate of the full screen: of about 270,000 compounds, about 5,800 (2.1%) were called active. Inconclusive results, whose numbers are uncertain, are shown with a selection of clear calls. Calls come from the whole dose curve; as a rule, active = well fitted inhibition curve with a large enough effect; inconclusive = small, poorly fitted or top-dose-only effect; inactive = flat fitted curve, though single readings scatter. Potencies of inconclusive entries are doubtful fits and often do not repeat.

Each molecule was assayed against Microtubule-associated protein tau (Homo sapiens) (UniProt P10636) (assay: qHTS for Inhibitors of Tau Fibril Formation, Thioflavin T Binding). Conditions: recombinant tau K18 P301L (four-repeat tau fragment), heparin-induced fibrillization, ThT fluorescence; series mostly up to 57.4 µM; activity, negative = inhibition: at the top concentration.
Sequence of UniProt P10636 (P10636 whole entry, looked up, the tested form may be a part): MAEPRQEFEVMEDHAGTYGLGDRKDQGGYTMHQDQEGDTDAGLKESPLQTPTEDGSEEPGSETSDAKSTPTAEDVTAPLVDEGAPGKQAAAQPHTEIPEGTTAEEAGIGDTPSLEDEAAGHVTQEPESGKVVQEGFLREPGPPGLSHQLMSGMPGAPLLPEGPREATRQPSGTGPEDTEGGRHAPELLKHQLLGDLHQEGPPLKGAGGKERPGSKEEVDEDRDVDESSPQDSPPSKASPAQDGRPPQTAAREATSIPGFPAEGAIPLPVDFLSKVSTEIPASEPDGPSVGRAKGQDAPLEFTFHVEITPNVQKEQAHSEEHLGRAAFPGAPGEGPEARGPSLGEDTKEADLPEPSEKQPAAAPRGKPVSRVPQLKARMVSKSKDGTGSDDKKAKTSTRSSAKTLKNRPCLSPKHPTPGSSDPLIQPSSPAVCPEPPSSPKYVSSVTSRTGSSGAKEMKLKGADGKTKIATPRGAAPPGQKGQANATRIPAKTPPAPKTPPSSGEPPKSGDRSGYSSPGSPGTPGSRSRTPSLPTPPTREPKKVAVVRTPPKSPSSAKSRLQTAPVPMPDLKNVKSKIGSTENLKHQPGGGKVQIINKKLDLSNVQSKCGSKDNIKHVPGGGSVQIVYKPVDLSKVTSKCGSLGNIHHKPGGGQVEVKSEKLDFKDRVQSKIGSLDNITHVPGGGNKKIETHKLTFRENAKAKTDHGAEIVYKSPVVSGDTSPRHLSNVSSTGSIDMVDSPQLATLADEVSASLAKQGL
In short: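 Heparin-induced fibrillization of the P301L-mutant K18 repeat-domain fragment of human tau was followed by ThT binding in quantitative high-throughput format.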
% is set by controls: 0 for no effect and ±100 for the full control effect; potency is the fitted concentration of half-maximal effect; tags give direction and shape of the fitted curve.
Note: nearly all actives have a fitted effect of over 55% in size.

Row | Compound | activity, negative = inhibition | Potency
1 | Cc1cccn2c(=O)c3cc(C(=O)NCCCN4CCOCC4)n(C)c3nc12 | inactive: 5.52% | –
2 | Cc1ccc(S(=O)(=O)/N=C2\CN(C)C(=O)N2C)cc1 | inactive: -11.9% | –
3 | COc1ccc(NC2c3ccccc3C(=O)N2c2ccccn2)cc1 (stereo not given) | – | inconclusive: 39.8 µM [inhibitor, single point]
4 | Cc1ccc(C(=O)NCCN2C3=NC[C@H](Cc4ccc(O)cc4)N3C[C@H]2Cc2ccc(O)cc2)cc1Br | – | inconclusive: 39.8 µM [inhibitor, single point]
5 | CCCn1c(N2CCN(C(=O)NCc3ccccc3)CC2)nc2ccccc21 | inactive: 3.43% | –
6 | CC1CCc2c(sc3ncnc(SCC(=O)N4CCN(C(=O)c5ccco5)CC4)c23)C1 (stereo not given) | inactive: -10.6% | –
7 | Cc1cccc(N2CCN(C(=O)CN3CCOc4ccccc43)CC2C)c1 (stereo not given) | – | inconclusive: 25.1 µM [inhibitor, partial curve, poor fit]
8 | CSC(=NC#N)N1CCN(c2ccc(Cl)cc2)CC1 | – | inconclusive: 2.82 µM [inhibitor, full curve]
9 | CCOC(=O)c1ccc(NC(=O)c2ccc(NC(=O)c3ccccc3)cc2)cc1 | inactive: -20.9% | –
10 | Cc1cccc(-n2c(CCc3ccccc3)nnc2SCC(=O)c2ccccc2)c1 | – | inconclusive: 39.8 µM [inhibitor, single point]
11 | O=C(O)c1ccc(Cn2cnc3cccnc32)cc1 | inactive: -7.42% | –
12 | CC1CN(C(=O)CCC(=O)NCc2cccc(Cl)c2)c2ccccc2S1 (stereo not given) | inactive: -16.7% | –
13 | Cc1cc(/C=C2/C(=O)NN(c3ccccc3)C2=O)c(C)n1-c1cccc(O)c1 | – | active: 12.6 µM
14 | CN(C)CCOc1nc(-c2ccccc2)nc2c1oc1ccccc12 | inactive: 5.43% | –
15 | CCOC(=O)N1CCN(C(=O)CSc2nc(-c3cccc(C)c3)ns2)CC1 | – | inconclusive: 12.6 µM [inhibitor, partial curve]
16 | COc1cccc(C2NC(=S)NC3=C2CCc2ccccc23)c1 (stereo not given) | – | inconclusive: 35.5 µM [inhibitor, single point]
17 | Cc1ccc(Nc2nc(C)nc3c2oc2ccccc23)cc1 | – | inconclusive: 7.94 µM [inhibitor, full curve, poor fit]
18 | O=C(CCCCn1c(=O)[nH]c2ccccc2c1=O)N1CCN(c2cccc(C(F)(F)F)c2)CC1 | – | inconclusive: 15.8 µM [inhibitor, partial curve]
19 | COc1ccc2c(c1)C(C)=CC(C)(C)N2C(=O)CSc1nnc(-c2ccc(C)cc2)o1 | – | inconclusive: 20 µM [inhibitor, single point]
20 | COc1ccccc1OCCCCN1CCN(C(c2ccccc2)c2ccccc2)CC1 | inactive: 3.16% | –
21 | O=C1NC(c2ccccc2)=C(c2ccc3ccccc3n2)C(c2ccccc2)N1 (stereo not given) | – | inconclusive: 14.1 µM [inhibitor, partial curve]
22 | COc1cc(/C=C(\C#N)c2nc3ccccc3s2)ccc1OCC(=O)Nc1ccccc1 | – | inconclusive: 1.12 µM [inhibitor, partial curve]
23 | O=C(Oc1ccccc1)c1ccc2c(c1)C(=O)N(Cc1ccncc1)C2=O | inactive: -11.9% | –

Row | Compound | activity, negative = inhibition | Potency
24 | CCN1CC2([N+](=O)[O-])C=CC(=O)C([N+](=O)[O-])(C1)C2CC(=O)c1ccccc1 (stereo not given) | – | inconclusive: 35.5 µM [inhibitor, single point]
25 | CCCCN(C)Cc1c(C(=O)N2CCc3ccccc3C2)nc2ccc(Cl)cn12 | inactive: -9.03% | –
26 | C/C(=N\OC(=O)c1cccc(C(F)(F)F)c1)c1sc(-c2ccccc2)nc1C | – | inconclusive: 3.55 µM [inhibitor, partial curve]
27 | CCOc1ccc(NC2SC(=O)N(Cc3ccccc3)C2=O)cc1 (stereo not given) | – | inconclusive: 17.8 µM [inhibitor, single point]
28 | Cc1ccc(Cl)cc1N1CCN(C(=O)Cc2cn(C)c3ccccc23)CC1 | – | inconclusive: 39.8 µM [inhibitor, partial curve, poor fit]
29 | COc1cccc(COC(=O)c2ccc(-c3nnn(Cc4cccc(OC)c4)n3)cc2)c1 | inactive: -0.463% | –
30 | O=C(Nc1nccs1)c1ccc(S(=O)(=O)NCc2cccs2)cc1 | – | inconclusive: 44.7 µM [inhibitor, single point]
31 | Cc1cc(C)c(S(=O)(=O)N2CCN(c3ccc([N+](=O)[O-])c(NCC4CCCO4)c3)CC2)c(C)c1 (stereo not given) | inactive: -18.7% | –
32 | O=C(COc1ccccc1Cl)Nc1nnc(S(=O)(=O)N2CCCC2)s1 | – | inconclusive: 2 µM [inhibitor, full curve]
33 | CCCCN(CC)C(=O)CSc1nc2n[nH]c(C)c2c(=N)n1-c1cccc(C)c1 | – | inconclusive: 20 µM [inhibitor, single point] and inconclusive: 22.4 µM [inhibitor, single point]
34 | Cc1cccn2cc(-c3c[nH]c4ccccc34)nc12 | – | inconclusive: 17.8 µM [inhibitor, partial curve]
35 | O=C(NC(=S)Nc1ccc(-c2nc3ncccc3o2)cc1)c1ccccc1F | – | inconclusive: 28.2 µM [inhibitor, single point]
36 | Cc1cc(O)c(N)c(C)c1Cl | – | inconclusive: 12.6 µM [inhibitor, partial curve, poor fit]
37 | Cc1ccc(C2(C(F)(F)F)NC(=O)N3CCCN=C3S2)cc1 (stereo not given) | inactive: -4.33% | –
38 | CNC(=S)N/N=C/c1ccc(N(C)C)cc1 | – | inconclusive: 14.1 µM [inhibitor, partial curve]
39 | O=C(COc1cccc(NC(=O)c2ccccc2)c1)c1ccc(F)cc1 | – | inconclusive: 1 µM [inhibitor, partial curve]
40 | COc1ccc(-c2nc(CSCC(=O)NC3CCCc4ccccc43)c(C)o2)cc1 (stereo not given) | – | inconclusive: 14.1 µM [inhibitor, partial curve]
41 | COc1ccc(-n2ccnc(NCc3cccs3)c2=O)cc1OC | inactive: -4% | –
42 | COc1cccc(CNC(=O)CSc2ccc(-c3cccs3)nn2)c1 | inactive: 0.869% | –
43 | COC(=O)c1cc(-c2ccc(C)o2)nc2ccccc12 | inactive: -15.8% | –
44 | COc1ccc(CC(=O)Nc2cc(-c3cn4cccnc4n3)ccc2C)cc1OC | – | inconclusive: 10 µM [inhibitor, partial curve, poor fit]
45 | CN(C)S(=O)(=O)c1ccc(-c2csc(N/N=C/c3ccco3)n2)cc1 | – | inconclusive: 3.55 µM [inhibitor, full curve]
